# Assay results published in the supplement of paper PMC8728848.
# The list shows a part of the results.
# B1: Cohesin-hLangerin (Homo sapiens) (protein)
# chain: LDDLDAVRIKVDTVNAKPGDTVRIPVRFSGIPSKGIANCDFVYSYDPNVLEIIEIEPGDIIVDPNPDKSFDTAVYPDRKIIVFLFAEDSGTGAYAITKDGVFATIVAKVKEGAPNGLSVIKFVEVGGFANNDLVEQKTQFFDGGANVGDTTEPATPTTPVTTPTTTDDLDAASYPRFMGTISDVKTNVQLLKGRVDNISTLDSEIKKNSDGMEAAGVQIQMVNESLGYVRSQFLKLKTSVEKANAQIQILTRSWEEVSTLNAQIPELKSDLEKASALNTKIRALQGSLENMSKLLKRQNDILQVVSQGWKYFKGNFYYFSLIPKTWYSAEQFCVSRNSHLTSVTSESEQEFLYKTAGGLIYWIGLTKAGMEGDWSWVDDTPFNKVQSARFWIPGEPNNAGNNEHCGNIKAPSLQAWNDAPCDKTFLFICKRPYVPSEPHHHHHH
# Columns and labels:
# Test in all cases: glycan array binding signal (z-score within array); higher = stronger binding
# Details in all cases: glycan notation: IUPAC condensed, linker removed
# GlcNAc(b1-3)Gal(b1-4)Glc = target: GlcNAc(b1-3)Gal(b1-4)Glc
# Summary of the method: (§1)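 Glycan array data were curated from 3228 arrays in the Consortium for Functional Glycomics database and kept only where the protein sequence was available. Glycan names were converted to IUPAC-condensed notation, and columns mapping to the same glycan were averaged. The binding signal is a within-array Z-score, averaged across arrays of the same protein sequence at different concentrations or buffers and across linkers. Negative Z-scores can be read as non-binding.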
# [1] = target: GlcNAc(b1-3)Gal(b1-4)GlcNAc
# Summary of the method: as §1
# [2] = target: GlcNAc(b1-3)Gal(b1-4)GlcNAc(b1-2)Man(a1-3)[GlcNAc(b1-3)Gal(b1-4)GlcNAc(b1-2)Man(a1-6)]Man(b1-4)GlcNAc(b1-4)GlcNAc
# Summary of the method: as §1
# [3] = target: GlcNAc(b1-3)Gal(b1-4)GlcNAc(b1-2)Man(a1-3)[GlcNAc(b1-3)Gal(b1-4)GlcNAc(b1-2)Man(a1-6)]Man(b1-4)GlcNAc(b1-4)[Fuc(a1-6)]GlcNAc
# Summary of the method: as §1
# [4] = target: GlcNAc(b1-3)Gal(b1-4)GlcNAc(b1-2)[GlcNAc(b1-3)Gal(b1-4)GlcNAc(b1-6)]Man(a1-6)[GlcNAc(b1-3)Gal(b1-4)GlcNAc(b1-2)Man(a1-3)]Man(b1-4)GlcNAc(b1-4)GlcNAc
# Summary of the method: as §1
# [5] = target: GlcNAc(b1-3)Gal(b1-4)GlcNAc(b1-3)Gal(b1-4)GlcNAc
# Summary of the method: as §1
# [6] = target: GlcNAc(b1-3)Gal(b1-4)GlcNAc(b1-3)Gal(b1-4)GlcNAc(b1-2)Man(a1-3)[GlcNAc(b1-3)Gal(b1-4)GlcNAc(b1-3)Gal(b1-4)GlcNAc(b1-2)Man(a1-6)]Man(b1-4)GlcNAc(b1-4)GlcNAc
# Summary of the method: as §1
# [7] = target: GlcNAc(b1-3)Gal(b1-4)GlcNAc(b1-3)Gal(b1-4)GlcNAc(b1-2)Man(a1-3)[GlcNAc(b1-3)Gal(b1-4)GlcNAc(b1-3)Gal(b1-4)GlcNAc(b1-2)Man(a1-6)]Man(b1-4)GlcNAc(b1-4)[Fuc(a1-6)]GlcNAc
# Summary of the method: as §1
# [8] = target: GlcNAc(b1-3)Gal(b1-4)GlcNAc(b1-3)Gal(b1-4)GlcNAc(b1-2)[GlcNAc(b1-3)Gal(b1-4)GlcNAc(b1-3)Gal(b1-4)GlcNAc(b1-6)]Man(a1-6)[GlcNAc(b1-3)Gal(b1-4)GlcNAc(b1-3)Gal(b1-4)GlcNAc(b1-2)Man(a1-3)]Man(b1-4)GlcNAc(b1-4)[Fuc(a1-6)]GlcNAc
# Summary of the method: as §1
# [9] = target: GlcNAc(b1-3)Gal(b1-4)GlcNAc(b1-3)Gal(b1-4)GlcNAc(b1-3)Gal(b1-4)GlcNAc(b1-2)Man(a1-3)[GlcNAc(b1-3)Gal(b1-4)GlcNAc(b1-3)Gal(b1-4)GlcNAc(b1-3)Gal(b1-4)GlcNAc(b1-2)Man(a1-6)]Man(b1-4)GlcNAc(b1-4)GlcNAc
# Summary of the method: as §1
# [10] = target: GlcNAc(b1-3)Gal(b1-4)GlcNAc(b1-3)Gal(b1-4)GlcNAc(b1-3)Gal(b1-4)GlcNAc(b1-2)Man(a1-3)[GlcNAc(b1-3)Gal(b1-4)GlcNAc(b1-3)Gal(b1-4)GlcNAc(b1-3)Gal(b1-4)GlcNAc(b1-2)Man(a1-6)]Man(b1-4)GlcNAc(b1-4)[Fuc(a1-6)]GlcNAc
# Summary of the method: as §1
# [11] = target: GlcNAc(b1-3)Gal(b1-4)GlcNAc(b1-3)Gal(b1-4)GlcNAc(b1-3)Gal(b1-4)GlcNAc(b1-2)[GlcNAc(b1-3)Gal(b1-4)GlcNAc(b1-3)Gal(b1-4)GlcNAc(b1-3)Gal(b1-4)GlcNAc(b1-6)]Man(a1-6)[GlcNAc(b1-3)Gal(b1-4)GlcNAc(b1-3)Gal(b1-4)GlcNAc(b1-3)Gal(b1-4)GlcNAc(b1-2)Man(a1-3)]Man(b1-4)GlcNAc(b1-4)[Fuc(a1-6)]GlcNAc
# Summary of the method: as §1
# [12] = target: GlcNAc(b1-3)Gal(b1-4)GlcNAc(b1-3)Gal(b1-4)GlcNAc(b1-3)Gal(b1-4)GlcNAc(b1-3)Gal(b1-4)GlcNAc(b1-2)Man(a1-3)[GlcNAc(b1-3)Gal(b1-4)GlcNAc(b1-3)Gal(b1-4)GlcNAc(b1-3)Gal(b1-4)GlcNAc(b1-3)Gal(b1-4)GlcNAc(b1-2)Man(a1-6)]Man(b1-4)GlcNAc(b1-4)GlcNAc
# Summary of the method: as §1
# [13] = target: GlcNAc(b1-3)Gal(b1-4)GlcNAc(b1-3)Gal(b1-4)GlcNAc(b1-3)Gal(b1-4)GlcNAc(b1-3)Gal(b1-4)GlcNAc(b1-2)Man(a1-3)[GlcNAc(b1-3)Gal(b1-4)GlcNAc(b1-3)Gal(b1-4)GlcNAc(b1-3)Gal(b1-4)GlcNAc(b1-3)Gal(b1-4)GlcNAc(b1-2)Man(a1-6)]Man(b1-4)GlcNAc(b1-4)[Fuc(a1-6)]GlcNAc
# Summary of the method: as §1
# [14] = target: GlcNAc(b1-3)Gal(b1-4)GlcNAc(b1-3)Gal(b1-4)GlcNAc(b1-3)Gal(b1-4)GlcNAc(b1-3)Gal(b1-4)GlcNAc(b1-2)[GlcNAc(b1-3)Gal(b1-4)GlcNAc(b1-3)Gal(b1-4)GlcNAc(b1-3)Gal(b1-4)GlcNAc(b1-3)Gal(b1-4)GlcNAc(b1-6)]Man(a1-6)[GlcNAc(b1-3)Gal(b1-4)GlcNAc(b1-3)Gal(b1-4)GlcNAc(b1-3)Gal(b1-4)GlcNAc(b1-3)Gal(b1-4)GlcNAc(b1-2)Man(a1-3)]Man(b1-4)GlcNAc(b1-4)[Fuc(a1-6)]GlcNAc
# Summary of the method: as §1
# [15] = target: GlcNAc(b1-3)Gal(b1-4)GlcNAc(b1-3)Gal(b1-4)GlcNAc(b1-3)GalNAc
# Summary of the method: as §1
# [16] = target: GlcNAc(b1-3)Gal(b1-4)GlcNAc(b1-3)GalNAc
# Summary of the method: as §1
# [17] = target: GlcNAc(b1-3)Gal(b1-4)GlcNAc(b1-3)[GlcNAc(b1-3)Gal(b1-4)GlcNAc(b1-3)]GalNAc
# Summary of the method: as §1
# [18] = target: GlcNAc(b1-3)Gal(b1-4)GlcNAc(b1-6)[Gal(b1-3)]GalNAc
# Summary of the method: as §1
# [19] = target: GlcNAc(b1-3)Gal(b1-4)GlcNAc(b1-6)[GlcNAc(b1-3)Gal(b1-3)]GalNAc
# Summary of the method: as §1
# [20] = target: GlcNAc(b1-3)Gal(b1-4)GlcNAc(b1-6)[GlcNAc(b1-3)]Gal(b1-4)GlcNAc
# Summary of the method: as §1
# GlcNAc(b1-3)GalNAc = target: GlcNAc(b1-3)GalNAc
# Summary of the method: as §1
# GlcNAc(b1-3)Man = target: GlcNAc(b1-3)Man
# Summary of the method: as §1
# [21] = target: GlcNAc(b1-3)[GlcNAc(b1-4)][GlcNAc(b1-6)]GlcNAc
# Summary of the method: as §1
# [22] = target: GlcNAc(b1-3)[GlcNAc(b1-6)]Gal(b1-4)GlcNAc
# Summary of the method: as §1
# [23] = target: GlcNAc(b1-3)[GlcNAc(b1-6)]GalNAc
# Summary of the method: as §1
# [24] = target: GlcNAc(b1-4)Gal(b1-4)GlcNAc
# Summary of the method: as §1
# GlcNAc(b1-4)GlcNAc = target: GlcNAc(b1-4)GlcNAc
# Summary of the method: as §1
# [25] = target: GlcNAc(b1-4)GlcNAc(b1-4)GlcNAc
# Summary of the method: as §1
# [26] = target: GlcNAc(b1-4)GlcNAc(b1-4)GlcNAc(b1-4)GlcNAc(b1-4)GlcNAc
# Summary of the method: as §1
# [27] = target: GlcNAc(b1-4)GlcNAc(b1-4)GlcNAc(b1-4)GlcNAc(b1-4)GlcNAc(b1-4)GlcNAc
# Summary of the method: as §1
# [28] = target: GlcNAc(b1-4)[GlcNAc(b1-6)]GalNAc
# Summary of the method: as §1
# [29] = target: GlcNAc(b1-6)Gal(b1-4)GlcNAc
# Summary of the method: as §1
# GlcNAc(b1-6)GalNAc = target: GlcNAc(b1-6)GalNAc
# Summary of the method: as §1
# [30] = target: GlcNAc6S(b1-3)Gal(b1-4)GlcNAc
# Summary of the method: as §1
# Kdn(a2-3)Gal(b1-3)GalNAc = target: Kdn(a2-3)Gal(b1-3)GalNAc
# Summary of the method: as §1
# Kdn(a2-3)Gal(b1-3)GlcNAc = target: Kdn(a2-3)Gal(b1-3)GlcNAc
# Summary of the method: as §1
binder,measurement,setting,value
B1,glycan array binding signal (z-score),GlcNAc(b1-3)Gal(b1-4)Glc,-0.38
same,glycan array binding signal (z-score),[1],-0.291
same,glycan array binding signal (z-score),[2],-0.336
same,glycan array binding signal (z-score),[3],0.641
same,glycan array binding signal (z-score),[4],0.383
same,glycan array binding signal (z-score),[5],-0.437
same,glycan array binding signal (z-score),[6],0.693
same,glycan array binding signal (z-score),[7],1.87
same,glycan array binding signal (z-score),[8],4.94
same,glycan array binding signal (z-score),[9],-0.124
same,glycan array binding signal (z-score),[10],2.43
same,glycan array binding signal (z-score),[11],0.079
same,glycan array binding signal (z-score),[12],0.534
same,glycan array binding signal (z-score),[13],1.99
same,glycan array binding signal (z-score),[14],0.101
same,glycan array binding signal (z-score),[15],-0.41
same,glycan array binding signal (z-score),[16],-0.255
same,glycan array binding signal (z-score),[17],-0.267
same,glycan array binding signal (z-score),[18],-0.317
same,glycan array binding signal (z-score),[19],1.34
same,glycan array binding signal (z-score),[20],0.339
same,glycan array binding signal (z-score),GlcNAc(b1-3)GalNAc,-0.39
same,glycan array binding signal (z-score),GlcNAc(b1-3)Man,0.012
same,glycan array binding signal (z-score),[21],-0.445
same,glycan array binding signal (z-score),[22],0.009
same,glycan array binding signal (z-score),[23],-0.334
same,glycan array binding signal (z-score),[24],-0.254
same,glycan array binding signal (z-score),GlcNAc(b1-4)GlcNAc,-0.193
same,glycan array binding signal (z-score),[25],-0.362
same,glycan array binding signal (z-score),[26],-0.242
same,glycan array binding signal (z-score),[27],-0.396
same,glycan array binding signal (z-score),[28],-0.419
same,glycan array binding signal (z-score),[29],-0.258
same,glycan array binding signal (z-score),GlcNAc(b1-6)GalNAc,-0.105
same,glycan array binding signal (z-score),[30],0.664
same,glycan array binding signal (z-score),Kdn(a2-3)Gal(b1-3)GalNAc,-0.137
same,glycan array binding signal (z-score),Kdn(a2-3)Gal(b1-3)GlcNAc,-0.413
